# Experimental data published in paper PMC6919601, “Identification of Plasmodium dipeptidyl aminopeptidase allosteric inhibitors by high throughput screening” (PLoS ONE, 2019).
# The whole screen tested about 110,000 compounds, of which about 230 (0.21%) showed an effect of 50% or more. The list shows a part of the results.
# Biological target: DPAP1 (Plasmodium falciparum, UniProt Q8IIJ9)
# Assay: primary screen, percent inhibition; read by cleavage of a fluorogenic dipeptide substrate; higher = more effect of the substance
# Design: species or system P. falciparum D10 trophozoite lysates; single well
# 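Also: 30 min substrate incubation versus DMSO and 10 µM JCP410 controls.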
# Chain of DPAP1 (Q8IIJ9 whole entry, looked up): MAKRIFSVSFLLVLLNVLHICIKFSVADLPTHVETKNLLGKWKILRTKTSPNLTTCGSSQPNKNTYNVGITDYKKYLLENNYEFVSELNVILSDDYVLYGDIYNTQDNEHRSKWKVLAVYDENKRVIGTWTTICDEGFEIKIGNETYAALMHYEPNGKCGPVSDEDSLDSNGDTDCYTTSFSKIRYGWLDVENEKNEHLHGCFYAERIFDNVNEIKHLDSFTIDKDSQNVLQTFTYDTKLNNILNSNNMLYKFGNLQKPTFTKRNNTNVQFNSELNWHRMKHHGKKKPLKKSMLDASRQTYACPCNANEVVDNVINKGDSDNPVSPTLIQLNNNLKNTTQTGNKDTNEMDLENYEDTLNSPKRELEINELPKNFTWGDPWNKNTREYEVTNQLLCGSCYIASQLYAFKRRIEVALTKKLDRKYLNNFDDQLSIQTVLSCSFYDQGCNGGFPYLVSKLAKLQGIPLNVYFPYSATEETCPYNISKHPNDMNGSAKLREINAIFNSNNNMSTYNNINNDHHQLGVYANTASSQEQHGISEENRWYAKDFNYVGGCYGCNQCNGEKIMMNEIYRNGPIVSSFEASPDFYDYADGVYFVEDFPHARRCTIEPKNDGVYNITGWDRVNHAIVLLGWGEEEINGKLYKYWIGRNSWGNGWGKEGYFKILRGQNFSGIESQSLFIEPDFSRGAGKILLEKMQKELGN
row,SMILES,% Inhibition @ 10 uM [%]
1,Cc1ccc(-c2nnc(SCC(=O)N3CCCCC3C)o2)cc1C (stereo not drawn),2.97
2,Cc1[nH]c2ccc(C(=O)NCCc3ccc(Cl)cc3)cc2c1C,-1.01
3,OC(C#CCN1CCOCC1)(c1ccccc1)c1ccccc1,-1.76
4,O=C(CSc1nc2nncc-2c(O)n1-c1ccccc1Cl)N1CCCC1,-0.406
5,O=C(C(c1ccccc1)c1ccccc1)N1CCCCCC1,2.23
6,CCCOc1ccc(CNC(=O)Cn2nc(CC)n3c(cc4sc(C)cc43)c2=O)cc1,-1.7
7,Cn1ncc2c(NCCC(c3ccccc3)c3ccccc3)ncnc21,2.4
8,CS(=O)(=O)N1CCN(c2ccc(NC(=O)c3sc4ccccc4c3Cl)cc2)CC1,-3.16
9,COc1ccc(CCNC(=O)C2CCN(S(=O)(=O)c3ccc(Br)cc3)CC2)cc1,-1.92
10,COc1ccc(Br)cc1CN1CCN(c2ccccc2)CC1,1.55
11,Cc1c(NC(=O)Nc2ccc(Cl)cn2)sc2nc3n(c(=O)c12)CCC(C)CC3 (stereo not drawn),6.35
12,CCSc1ccsc1C1C(C#N)=C(N)N(c2cccnc2)C2=C1C(=O)CC(C)(C)C2 (stereo not drawn),2.17
13,COc1cccc(CN2CCc3cc(OC)c(OC)cc3C2)c1,1.27
14,CC(C)(C)c1cc(-c2ccc(Cl)cc2)n(-c2cccc3cccnc23)n1,5.48
15,[O-][n+]1cc(-c2ccc(Cl)cc2)[n+]([O-])c2c1CCCC2,1.84
16,Cc1ccc(OCC(=O)Nc2ccc(C(=O)O)cc2)cc1C,-3.16
17,CCOCCc1nnc(NC(=O)c2cccc(OCC)c2)s1,-2.13
18,CCn1c(Oc2cccc3cccnc23)nc2c1c(=O)n(C)c(=O)n2C,-3.75
19,Brc1ccc2c(c1)C1CC(c3ccccc3)=NN1C(c1cccnc1)O2 (stereo not drawn),5.5
20,CC(CCc1ccccc1)NCCCN(C)C (stereo not drawn),-1.21
21,S=C1NCN(CCc2ccccc2)CN1C1CCCCC1,-1.92
22,CC(=O)Nc1cc2c(cc1NC(C)=O)n(C)c(=O)n2C,-2.22
23,Cc1cccc(-c2noc(CN(C(=O)/C=C/c3ccccc3Cl)C(C)C)n2)c1,-3.68
24,CN1CCN(C(=O)COc2ccccc2C#N)CC1,-1.7
25,Cc1onc(-c2ccccc2Cl)c1C(=O)N(Cc1nc(-c2ccccc2)no1)C(C)C,-3.37
26,CCN(CC)S(=O)(=O)c1cccc(S(=O)(=O)c2ccc(Cl)c(Cl)c2)c1,3.25

row,SMILES,% Inhibition @ 10 uM [%]
1,CCNc1ncnc2onc(C)c12,3.93
2,CN(C)c1ccc(CN2CCN(c3ccc(F)cc3)CC2)cc1,-1.77
3,COc1cc(C2C(C#N)=C(N)OC3=C2C(=O)CC(C)(C)C3)ccc1OCc1cccc(Cl)c1 (stereo not drawn),0.169
4,Cc1cc2c(n1-c1ccc(C(=O)NCCCN3CCC(N4CCCCC4)CC3)cc1)CCCC2,1.21
5,COc1ccc(CNC(=O)c2ccccc2C(=O)O)cc1,1.94
6,COCCNC(=O)CSCc1nc(-c2ccc(Cl)cc2)oc1C,3.99
7,CC1(C)Cc2c(sc(NC(=O)c3ccccc3)c2C#N)CO1,-2.54
8,COc1ccc(N(C(=O)c2ccccc2F)c2ccccc2)cc1,0.0345
9,O=C1CN(Cc2ccccc2)CC(=O)N1,-5.47
10,CSc1ncc2c(O)nccc2n1,-8.63
11,CC(C)C1C(c2ccccc2)NC(c2ccccc2)CC1(O)C#Cc1ccccc1 (stereo not drawn),3.65
12,COC(=O)c1cc(S(=O)(=O)NCc2ccc(OC)cc2)c[nH]1,-0.255
13,CO/C(O)=C1/C(C)=NC(=S)NC1/C=C/c1ccccc1 (stereo not drawn),0.219
14,Cc1[nH]nc(Nc2cccc(C(=O)O)c2)c1[N+](=O)[O-],-0.254
15,COc1ccccc1C(=O)N/C(=C\c1cn(S(=O)(=O)N(C)C)c2ccccc12)C(=O)N1CCCC1,-1.96
16,O=C1N(CN2CCOCC2)c2ccccc2C12OCCCO2,2.69
17,CCN(CC)S(=O)(=O)c1ccc(NC(=O)c2ccc(OC)c(Br)c2)cc1,-0.95
18,CC1CC(=O)C2CCCCC2S1(=O)=O (stereo not drawn),2.38
19,O=C(CN(Cc1ccc(Cl)cc1)S(=O)(=O)c1ccccc1)Nc1ccc(F)cc1,8.87
20,NC(=O)/C(=C/c1ccccc1)NC(=O)c1ccco1,-3.83
21,CS(=O)(=O)N(CC(=O)O)c1ccc(C23CC4CC(CC(C4)C2)C3)cc1,8.19
22,CC(=O)N(C)c1ccc(NC(=O)c2cccc(Br)c2)cc1,-3.71
23,C=CCN(C(C)C(=O)O)S(=O)(=O)c1ccc(C)cc1 (stereo not drawn),-1.91
24,CCCCn1c(CN2CCN(CC)CC2)nc2c1c(=O)n(C)c(=O)n2C,-0.499
25,CC(=O)c1cc(F)c(N2CCC(C)CC2)cc1C,-2.2
26,Cc1ccccc1NC(=O)Cn1c(-c2nonc2N)nc2ccccc21,19.8

row,SMILES,% Inhibition @ 10 uM [%]
1,CCn1c(COc2cccc(OC)c2)nc2ccccc21,-1.15
2,Cc1ccc(-c2cc(C(=O)NCc3cnn(C)c3)c3ccccc3n2)cc1C,-2.77
3,CC(C)(C)c1ccc(S(=O)(=O)NCC(=O)N2CCN(C(=O)c3ccco3)CC2)cc1,0.361
4,CCOc1ccc(NC(=O)CSc2nc3sc(C)c(C)c3c(=O)n2C)cc1,0.746
5,Cc1ccccc1OCCCOc1ccc(/C=C2/C(=N)N3C=CSC3=NC2=O)cc1,1.84
6,CC(=O)N1CCC2(CC1)OC(=O)C(C)=C2C(=O)NCCC1=CCCCC1,-0.501
7,CC(C)(C)NC(=O)c1ccccc1Sc1ccccc1C#N,3.49
8,COc1ccc(C=C2C(=O)NC(=O)NC2=O)c(OC)c1OC,-8.57
9,COc1cccc2c1Oc1ncccc1N(C(=O)CCC(=O)NCCCN1CCCCCC1)C2,3.37
10,CCCc1nnc2sc(NC(=O)c3cccc(OC)c3)nn12,14.6
11,CCCCC(NC(C)=O)c1nc2ccccc2n1Cc1ccccc1C (stereo not drawn),-1.29
12,CN1C(=O)C2Cc3c([nH]c4ccccc34)C(c3cccc(Cl)c3)N2C1=S (stereo not drawn),3.31
13,Cc1nn(-c2ccccc2)c(O)c1N=Nc1n[nH]c(C(=O)O)n1,4.99
14,Cc1ccc(C(C#N)NC(=O)[C@H](CC(C)C)NC(=O)c2cc(-c3ccccc3)c(-c3ccccc3)s2)o1 (stereo partly drawn),-6.46
15,Cc1ccccc1CSCC(=O)NCCSc1ccccn1,-2.9
16,Cc1ccc(OCCOc2ccc(/C=C3/C(=N)N4C(=NC3=O)SN=C4S(C)(=O)=O)cc2)cc1,0.163
17,CCn1c2ccccc2c2nc3ccccc3nc21,-5.34
18,CCCCN(C)S(=O)(=O)c1ccc(-c2ccc(O)nn2)o1,-5.97
19,COc1ccccc1Nc1nc(-c2ccc(Cl)cc2)cs1,2
20,COc1ccc(C(=O)NCC(=O)O)cc1,-1.77
21,COc1cccc(CNC2CCCc3ccccc32)c1OC (stereo not drawn),0.565
22,CCOC(=O)c1nnn(-c2nonc2NC(C)=O)c1C,-0.0735
23,COc1cc(C(=O)Nc2ccc(NC(=O)c3cccs3)cc2)cc(OC)c1OC,2.65
24,O=C(O)c1ccc(Oc2ccc(C(=O)c3ccc(C(=O)O)c(C(=O)O)c3)cc2)cc1,-1.45
25,Cc1cc(=O)n2nc(N3CCC(C(=O)NCc4cccnc4)CC3)sc2n1,-0.281
26,COC(=O)c1ccc(-c2nc(-c3ccc(C(F)(F)F)cc3)no2)cc1,-4.19

row,SMILES,% Inhibition @ 10 uM [%]
1,COC1CCCCC1NCCc1ccccc1F (stereo not drawn),1.84
2,Cc1ccc2c(c1)C1OCCC1C(c1ccco1)N2 (stereo not drawn),4.67
3,CC1=C(C(=O)OCCOc2ccccc2)C(c2cccc(Oc3ccccc3)c2)NC(=O)N1 (stereo not drawn),4.35
4,COc1cc(CN(C)C2CCN(C)CC2)cc(OC)c1O,-4.61
5,CC1(C)CCCC2=C1CC(C(=O)O)C(C(=O)NCc1cccnc1)C2 (stereo not drawn),3.72
6,O=C(C1CCN(S(=O)(=O)N2CCC3(CC2)OCCO3)CC1)N1CCN(Cc2ccccc2)CC1,6.86
7,COc1ccc(C2NC(=O)C(O)=C2C(=O)c2ccc(C)cc2)cc1 (stereo not drawn),0.475
8,CCc1ccccc1NC(=O)c1ccccc1C(=O)O,-1.29
9,Cc1ccc(CSc2nc3cccnc3n2Cc2cc(=O)n3ccccc3n2)cc1,-0.35
10,CCN(CC)c1ccc2nonc2c1[N+](=O)[O-],0.962
11,COC(=O)c1ccc(NC(=O)CN2C(=O)c3ccccc3C2=O)cc1,-6.82
12,Fc1ccc(CNc2ccc(CNc3nc[nH]n3)cc2)cc1,1.84
13,Cn1c(=O)c2c(ncn2CCCOC(c2ccc(F)cc2)c2ccc(F)cc2)n(C)c1=O,1.89
14,O=C1c2ccccc2C(=O)N1CCCc1nc(-c2ccc(Cl)cc2)no1,-1.11
15,Cc1nn(CC(=O)N(C)Cc2ccccc2)c(=O)c2cccn12,-3.93
16,Cc1nn(CC(=O)NCC2CCCO2)c(=O)c2cccn12 (stereo not drawn),-0.542
17,CC(Cc1ccc(OCCN(C)C)cc1)N(C)C (stereo not drawn),-1.91
18,Cc1nnc(N2C(=O)c3oc4ccccc4c(=O)c3C2c2ccccc2)s1 (stereo not drawn),-1.86
19,COc1ccccc1OCC(=O)Nc1cccc(N(C)S(C)(=O)=O)c1,-15.4
20,CCOC(=O)N1CCN(C(=O)c2cc3c(s2)-c2c(C)cccc2OC3)CC1,-1.58
21,CC1=C(C(=O)OCC(F)(F)F)C(c2ccc(Cl)cc2)NC(=O)N1 (stereo not drawn),5.92
22,Cc1cc(C)nc(/N=C(\N)Nc2cccc(OCc3ccccc3)c2)n1,-1.02
23,COc1cc(C(=O)Nc2nn3c(C)nnc3s2)cc(OC)c1OC,1.1
24,COc1ccc(C(=O)NCCCn2ccnc2)cc1,3.87
